Measured values taken from patent US20230158063A1, “AIRWAY […] THERAPY TO TREAT VIRAL R[…]” (THE TRUSTEES OF INDIANA UNIVERSITY, priority 2020, published 2023).

System: SARS CoV-2 S protein
Conditions: 20 hours post-infection; relative to untreated cells

Structure (SMILES): CN(C)C(=O)COC(=O)Cc1ccc(OC(=O)c2ccc(NC(=N)N)cc2)cc1.CS(=O)(=O)O [CM, camostat methylate]
- S protein cleavage (ratio of 180 kDa unprocessed S protein to cleaved S2 subunit): inhibit cleavage
